This sample is rich in variants without activity.
B1: tRNA (parent)
chain: CUCUCGGUAGCCAAGUUGGUUUAAGGCGCAAGACUUUAAUUUAUCACUACGAAAUCUUGAGAUCGGGCGUUCGACUCGCCCCCGGGAGAUUUUUUCCUCGAGCAA

Variants of: B1
Test: nonsense suppression (GFP-seq) (ratio to wild type); higher = more function; SUP4oc tRNA, yeast GFP reporter sort-seq
Summary of the method: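 Yeast carrying genome-integrated SUP4oc tRNA variants from a library with ~3% random mutations were grown in raffinose/galactose medium with 80 mg/L adenine. Each strain also carried a galactose-driven GFP ochre reporter and RFP. Cells were sorted into GFP/RFP bins, and each bin was Illumina-sequenced (phred ≥30). Nonsense suppression (GFPSEQ) is the bin median GFP/RFP, weighted by each variant's estimated cell share per bin, relative to wild-type SUP4oc; variants needed ≥100 reads and ≥30 cells.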

U8G G25C A60U and A9C A30C U63G G84C cannot be ordered by nonsense suppression: no more than 0.026 for the first, no more than 0.026 for the second.

U8G C79A and U8G C79G cannot be ordered by nonsense suppression: no more than 0.026 for the first, no more than 0.026 for the second.

A9C A30U C56G A62C and A9C A60G G73U cannot be ordered by nonsense suppression: no more than 0.026 for the first, no more than 0.026 for the second.

U8G G26A G65C C82A and A9C G26U A31C G84U cannot be ordered by nonsense suppression: no more than 0.026 for the first, no more than 0.026 for the second.

U8G C11U A74G G84A and U8G U22G C27U cannot be ordered by nonsense suppression: no more than 0.026 for the first, no more than 0.026 for the second.

A9C U16G A30G U58G and A9C C12U U63C cannot be ordered by nonsense suppression: no more than 0.026 for the first, no more than 0.026 for the second.

U8G U17A A74G C83G G85C G86U and A9C G15C cannot be ordered by nonsense suppression: no more than 0.026 for the first, no more than 0.026 for the second.

A9C G15U and U8G G61C A89G cannot be ordered by nonsense suppression: no more than 0.026 for the first, no more than 0.026 for the second.

U8C C64A U70C and A9C A60C G73A cannot be ordered by nonsense suppression: no more than 0.026 for the first, no more than 0.026 for the second.

First: A9C G85U
Second: U8C C83G
The nonsense suppression of the first is higher: 0.04 for the first, no more than 0.026 for the second.

A9C G25A G26A G88U and U8C G25U C56G U58C C68G cannot be ordered by nonsense suppression: no more than 0.026 for the first, no more than 0.026 for the second.

First: A9C C27U G32C U35A C68A G78C
Second: U8C G85U
The nonsense suppression of the first is lower: no more than 0.026 for the first, 0.0537 for the second.

U8G G25U and A9C G25C A31U cannot be ordered by nonsense suppression: no more than 0.026 for the first, no more than 0.026 for the second.

A9C G18A A31C A54C A62U G69C G88C and A9C G59A U63C cannot be ordered by nonsense suppression: no more than 0.026 for the first, no more than 0.026 for the second.

First: A9C A30G
Second: A9C A89G
The nonsense suppression of the first is higher: 0.171 for the first, no more than 0.026 for the second.

A9C A89U and U8C C11A U71A A74U G88C cannot be ordered by nonsense suppression: no more than 0.026 for the first, no more than 0.026 for the second.

A9C A87C A89C and A9C G86A cannot be ordered by nonsense suppression: no more than 0.026 for the first, no more than 0.026 for the second.

U8C U20C U22A A33C A62C C82G and U8G A24C G28C G32C cannot be ordered by nonsense suppression: no more than 0.026 for the first, no more than 0.026 for the second.

U8G G67U C68G C77G C79U and U8G G61C C81A G84C cannot be ordered by nonsense suppression: no more than 0.026 for the first, no more than 0.026 for the second.

U8C U20G A74G and U8C G19A C27G C34U G69A cannot be ordered by nonsense suppression: no more than 0.026 for the first, no more than 0.026 for the second.

A9C C72G G78U and U8C A60G C77G cannot be ordered by nonsense suppression: no more than 0.026 for the first, no more than 0.026 for the second.

Going from U8C A14U G69U to A9G A13C, the nonsense suppression rises from no more than 0.026 to 0.183.

U8C U35A and U8C U35C cannot be ordered by nonsense suppression: no more than 0.026 for the first, no more than 0.026 for the second.

U8C G10C A60G G61A and U8G G61U C83A cannot be ordered by nonsense suppression: no more than 0.026 for the first, no more than 0.026 for the second.

Compared with A9C, A9G is lower in nonsense suppression: 1.05 for the first, 0.45 for the second.

U8G U63A and A9G A60U G88A cannot be ordered by nonsense suppression: no more than 0.026 for the first, no more than 0.026 for the second.

U8C C29U A62C and U8C G86C cannot be ordered by nonsense suppression: no more than 0.026 for the first, no more than 0.026 for the second.

U8C G86U and U8G G15A G78C cannot be ordered by nonsense suppression: no more than 0.026 for the first, no more than 0.026 for the second.

U8C C12G A74U C77A and A9C G59A C82U cannot be ordered by nonsense suppression: no more than 0.026 for the first, no more than 0.026 for the second.

U8G A13U U70G G86A and U8C A33G G88C cannot be ordered by nonsense suppression: no more than 0.026 for the first, no more than 0.026 for the second.

U8C A62U G78C and A9C U22G U35A C56U cannot be ordered by nonsense suppression: no more than 0.026 for the first, no more than 0.026 for the second.

U8C G65A C72U and A9C G19U U58A G67U cannot be ordered by nonsense suppression: no more than 0.026 for the first, no more than 0.026 for the second.

A9C G66A A89C and U8C G61A C80U cannot be ordered by nonsense suppression: no more than 0.026 for the first, no more than 0.026 for the second.

U8G G25U A54U U70G G73C and U8G G18U C29G A33G G78A cannot be ordered by nonsense suppression: no more than 0.026 for the first, no more than 0.026 for the second.

U8G A9G G10U U21A C34G G73U G86C and U8C G10U cannot be ordered by nonsense suppression: no more than 0.026 for the first, no more than 0.026 for the second.

A9C U55C G59A G78U and A9C C11G G32U G69U cannot be ordered by nonsense suppression: no more than 0.026 for the first, no more than 0.026 for the second.

U8G G15C A24C U63C U71C and U8C G73C C81G A87G cannot be ordered by nonsense suppression: no more than 0.026 for the first, no more than 0.026 for the second.

Compared with A9C C68U, U8C G19U U55C is lower in nonsense suppression: 0.765 for the first, no more than 0.026 for the second.

U8C A33U and U8G A13G G61C C68G C82G cannot be ordered by nonsense suppression: no more than 0.026 for the first, no more than 0.026 for the second.

U8C C81G and U8C A30C G65A U71G G86C cannot be ordered by nonsense suppression: no more than 0.026 for the first, no more than 0.026 for the second.

A9C G19U A23C and A9C U71A U76C cannot be ordered by nonsense suppression: no more than 0.026 for the first, no more than 0.026 for the second.

U8G G32A U70A C79U and U8C G15A A31U cannot be ordered by nonsense suppression: no more than 0.026 for the first, no more than 0.026 for the second.

A9G A23G U70G A89G and A9G A14C A31U cannot be ordered by nonsense suppression: no more than 0.026 for the first, no more than 0.026 for the second.

A9C G65C and A9C G65A cannot be ordered by nonsense suppression: no more than 0.026 for the first, no more than 0.026 for the second.

U8C A14G C81G and U8C U76A cannot be ordered by nonsense suppression: no more than 0.026 for the first, no more than 0.026 for the second.

A9C A33G G88U and U8C A74C C83U cannot be ordered by nonsense suppression: no more than 0.026 for the first, no more than 0.026 for the second.

U8C G10A G15U and A9G C11G A31G G61A G86A cannot be ordered by nonsense suppression: no more than 0.026 for the first, no more than 0.026 for the second.

U8G U58G and U8G U58A cannot be ordered by nonsense suppression: no more than 0.026 for the first, no more than 0.026 for the second.

U8G A23C G26U and U8G U16A G25A cannot be ordered by nonsense suppression: no more than 0.026 for the first, no more than 0.026 for the second.

A9C G15A C29G G69C and U8C G25U U58C G61U G78C cannot be ordered by nonsense suppression: no more than 0.026 for the first, no more than 0.026 for the second.

Going from A9C C12U to U8C C12U U22C A33G G78U, the nonsense suppression falls from 0.186 to no more than 0.026.

U8C G10A U55C G73A and U8C A30C C75G cannot be ordered by nonsense suppression: no more than 0.026 for the first, no more than 0.026 for the second.

First: U8C U57A G86A
Second: A9C U63G
The nonsense suppression of the first is lower: no more than 0.026 for the first, 0.0362 for the second.

U8G G66C G73A and U8G C56G G65C C79A cannot be ordered by nonsense suppression: no more than 0.026 for the first, no more than 0.026 for the second.

A9C U58G G61U and A9G C11U G15C G32U C34U G67C C80G cannot be ordered by nonsense suppression: no more than 0.026 for the first, no more than 0.026 for the second.

A9G A62U G65U and A9G A54U U70C cannot be ordered by nonsense suppression: no more than 0.026 for the first, no more than 0.026 for the second.

U8G U21C A31G U35C C80A and U8G G69C cannot be ordered by nonsense suppression: no more than 0.026 for the first, no more than 0.026 for the second.

A9C U21C A30C and A9C U16G G88A cannot be ordered by nonsense suppression: no more than 0.026 for the first, no more than 0.026 for the second.

U8C G28A A31G C81G and U8C U21A U55A C75G C82G G86A cannot be ordered by nonsense suppression: no more than 0.026 for the first, no more than 0.026 for the second.

Compared with U8C A31U G65A, A9C A13G is higher in nonsense suppression: no more than 0.026 for the first, 0.0462 for the second.

U8G A9C A31C G67A G73A A74U and U8C A24U G26C G59C G88A cannot be ordered by nonsense suppression: no more than 0.026 for the first, no more than 0.026 for the second.

A9G A24G A54U U71G and A9G A60G U71C cannot be ordered by nonsense suppression: no more than 0.026 for the first, no more than 0.026 for the second.

A9G A30C G66A U70G C75G U76A and A9C U57C C82G cannot be ordered by nonsense suppression: no more than 0.026 for the first, no more than 0.026 for the second.

A9C U21G A89G and U8G G28A A31G U35G cannot be ordered by nonsense suppression: no more than 0.026 for the first, no more than 0.026 for the second.

U8C G78A and U8C G32C G65C C77A cannot be ordered by nonsense suppression: no more than 0.026 for the first, no more than 0.026 for the second.

U8C U16A A30C A54C and A9C A30G C64G G69U cannot be ordered by nonsense suppression: no more than 0.026 for the first, no more than 0.026 for the second.

U8C U71G and A9C C27A C82A cannot be ordered by nonsense suppression: no more than 0.026 for the first, no more than 0.026 for the second.

U8C G61U and U8G G18U U63A cannot be ordered by nonsense suppression: no more than 0.026 for the first, no more than 0.026 for the second.

U8G U20G C82G and U8G A14U C83U cannot be ordered by nonsense suppression: no more than 0.026 for the first, no more than 0.026 for the second.

U8C A24C G78C and A9C A23U G73A G78A cannot be ordered by nonsense suppression: no more than 0.026 for the first, no more than 0.026 for the second.

A9C U17A G59U C64A and U8C U17A cannot be ordered by nonsense suppression: no more than 0.026 for the first, no more than 0.026 for the second.

U8G A60C C72A and A9C C34G cannot be ordered by nonsense suppression: no more than 0.026 for the first, no more than 0.026 for the second.

U8G C56U and A9G A33G C79U cannot be ordered by nonsense suppression: no more than 0.026 for the first, no more than 0.026 for the second.

A9G A33C A74U C82U and A9C C27G G78U cannot be ordered by nonsense suppression: no more than 0.026 for the first, no more than 0.026 for the second.

A9G C11G U21A G67A and U8G U63C U70A cannot be ordered by nonsense suppression: no more than 0.026 for the first, no more than 0.026 for the second.

U8G C34U U57A and A9C C77U cannot be ordered by nonsense suppression: no more than 0.026 for the first, no more than 0.026 for the second.

U8C U70A and A9C G10C A62C C80A cannot be ordered by nonsense suppression: no more than 0.026 for the first, no more than 0.026 for the second.

U8G A33G and U8G U22G C77G cannot be ordered by nonsense suppression: no more than 0.026 for the first, no more than 0.026 for the second.

U8G G61U U71C and A9G A62U cannot be ordered by nonsense suppression: no more than 0.026 for the first, no more than 0.026 for the second.

A9C G19U A23G G32U C34G G65C G67C G78U C81A and U8C U21A cannot be ordered by nonsense suppression: no more than 0.026 for the first, no more than 0.026 for the second.

U8C A30U G84A and U8G A23G C82G G86A cannot be ordered by nonsense suppression: no more than 0.026 for the first, no more than 0.026 for the second.

A9G C12U U70A and U8C A24C U58G G65A cannot be ordered by nonsense suppression: no more than 0.026 for the first, no more than 0.026 for the second.

Compared with U8C G28C, U8C G61A C72A is lower in nonsense suppression: 0.0327 for the first, no more than 0.026 for the second.

U8C U21G C34G G59C C64U C82U gave a nonsense suppression of no more than 0.026.
